# Results: publication PMC4336329 (PLoS ONE, 2015)
# The whole screen tested about 310,000 compounds, of which about 14,000 (4.5%) showed an effect of 50% or more. Effects have a minus sign here. The list shows a part of the results.
# Biological target: human ether-à-go-go-related gene (hERG) potassium channel (human, UniProt Q12809)
# Assay: primary screen, population patch clamp on CHO cells stably expressing hERG
# 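Note: peak tail current of the secondary pulse compared with the same well before compound.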
# Chain of human ether-à-go-go-related gene (hERG) potassium channel (Q12809 whole entry, looked up): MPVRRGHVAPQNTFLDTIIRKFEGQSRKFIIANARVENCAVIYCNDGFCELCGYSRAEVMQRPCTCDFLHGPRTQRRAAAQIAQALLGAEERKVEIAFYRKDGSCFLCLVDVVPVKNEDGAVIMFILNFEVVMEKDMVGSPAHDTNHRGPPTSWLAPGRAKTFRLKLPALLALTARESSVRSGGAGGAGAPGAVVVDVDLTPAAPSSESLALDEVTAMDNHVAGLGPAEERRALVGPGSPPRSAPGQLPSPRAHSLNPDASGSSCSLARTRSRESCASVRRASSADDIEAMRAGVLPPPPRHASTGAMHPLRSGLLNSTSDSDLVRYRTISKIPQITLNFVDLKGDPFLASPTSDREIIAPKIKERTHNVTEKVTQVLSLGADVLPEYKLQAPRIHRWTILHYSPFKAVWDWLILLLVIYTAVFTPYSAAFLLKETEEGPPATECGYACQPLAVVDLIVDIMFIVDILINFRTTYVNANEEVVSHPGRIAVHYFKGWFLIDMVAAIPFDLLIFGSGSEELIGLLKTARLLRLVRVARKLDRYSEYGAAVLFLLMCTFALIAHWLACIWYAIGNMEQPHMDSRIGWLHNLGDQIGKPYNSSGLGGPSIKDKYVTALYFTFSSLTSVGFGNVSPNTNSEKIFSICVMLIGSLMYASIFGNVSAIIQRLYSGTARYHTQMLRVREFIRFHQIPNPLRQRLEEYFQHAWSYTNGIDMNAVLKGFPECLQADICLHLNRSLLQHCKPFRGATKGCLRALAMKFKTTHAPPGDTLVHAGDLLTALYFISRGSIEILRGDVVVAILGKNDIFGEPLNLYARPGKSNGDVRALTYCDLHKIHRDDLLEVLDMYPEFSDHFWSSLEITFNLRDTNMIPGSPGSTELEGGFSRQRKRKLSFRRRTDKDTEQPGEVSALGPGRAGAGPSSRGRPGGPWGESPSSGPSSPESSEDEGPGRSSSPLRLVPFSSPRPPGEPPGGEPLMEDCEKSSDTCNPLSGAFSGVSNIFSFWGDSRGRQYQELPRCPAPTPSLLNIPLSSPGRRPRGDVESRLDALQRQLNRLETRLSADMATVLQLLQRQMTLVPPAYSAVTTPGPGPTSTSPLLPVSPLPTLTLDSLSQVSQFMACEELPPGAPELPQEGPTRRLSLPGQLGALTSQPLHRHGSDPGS
row,SMILES,"hERG current change (%, negative = inhibition) at 10uM [%]"
1,CCN(CC)CCCN1C=C2C(=O)C(C)(OC(=O)CCc3ccccc3)C(=O)C=C2C=C1c1ccc(C#N)cc1 (stereo not shown),-37.6
2,COCCNC(=S)N/N=C(\C)c1cccc(C(F)(F)F)c1,18.9
3,Cc1ccc(NC(=O)C(c2ccccc2)N2CCN(CC(=O)NC3CC3)CC2)cc1Cl (stereo not shown),-46.7
4,O=C(NCCN1CCOCC1)c1ccc2c(c1)N(Cc1ccc(F)cc1)C(=O)CS2,0.414
5,CCCc1cc(C(=O)N/N=C/c2cccn2C)cs1,-5.17
6,CCN(CC)CCC(=O)NC(C)(C)Cc1ccc(O)cc1,-1.6
7,Cc1cc(C)nc(SCC(=O)N/N=C/c2ccc3c(c2)OCO3)n1,8.05
8,CCc1ccc2[nH]c3nc(C)cc(C)c3c(=O)c2c1,6.85
9,CC(C)=C1SC(N2CCN(c3ccc(C)cc3)CC2)=NC1=O,-8.21
10,Cc1cnc(NC(=O)CN2C(=O)C3CC=CCC3C2=O)s1 (stereo not shown),37.7
11,CCn1c(=O)c(C(=O)CN2CCN(S(=O)(=O)c3cc(C)ccc3C)CC2)c(N)n(Cc2ccccc2)c1=O,7.11
12,NC(=O)c1ccccc1NC(=O)COc1ccc2c(c1)OCO2,4.47
13,CC[n+]1c(/C=C/N(C)c2ccccc2)sc2ccc(Cl)cc21.[O-][Cl+3]([O-])([O-])[O-],-62.6
14,CSc1ccc(/C=N/N2CCN(c3ccccc3)CC2)cc1,-3.15
15,CCOc1ccc(NC(=O)c2ccc(-c3csc(C)n3)cc2)cc1,16.5
16,O=C(CCc1nc2sc3c(c2c(=O)[nH]1)CCCC3)NCCc1ccccc1,6.82
17,COc1ccc(S(=O)(=O)N2CCCCCC2)cc1NC(=O)c1ccccc1,10.5
18,CCc1ccc(CSc2nccn2-c2ccccc2)cc1,-2.11
19,CCCCn1c(SCC(=O)N2CCCC2)nc2c1c(=O)n(C)c(=O)n2C,-23.4
20,C=CCn1c(=O)c2ccccc2n2c(SCC(=O)c3ccccc3)nnc12,-20.3
21,Cc1ccccc1-n1nc2c(c1NC(=O)C(C)(C)C)CS(=O)(=O)C2,12
22,Cc1cccc(NC(=O)NCCCCc2ccccc2)c1,4.78
23,O=C(NCCS(=O)CCNC(=O)C(F)(F)F)C(F)(F)F,16
24,Cc1ccc(CSCCNC(=O)CCSc2ccccc2)cc1,-7.78
25,CC(=O)Nc1ccc(OCCCNC(=O)c2c(-c3ccccc3)noc2C)cc1,4.89
26,COCCNC(=O)C1CCN(S(=O)(=O)c2c(C)noc2/C=C/c2cccs2)CC1,-34.7
27,CCS(=O)(=O)C1=NSC2=NC(=O)/C(=C\c3ccc(OS(=O)(=O)c4ccccc4)cc3)C(=N)N21,22.5
28,COc1cccc(Nc2nc(-c3ccc4c(c3)OCCO4)cs2)c1,6.19

row,SMILES,"hERG current change (%, negative = inhibition) at 10uM [%]"
1,COc1ccccc1CC(=O)O/N=C(\N)c1cccc([N+](=O)[O-])c1,-8.86
2,CN(CC(=O)Nc1ccccc1Cl)C(=O)COC(=O)c1cnccn1,28.7
3,C/C(=N\N=C1\NC(=O)C(CC(=O)Nc2ccc(Cl)cc2)S1)c1ccco1 (stereo not shown),13
4,CN(C)C(=S)Nc1ccc2ccccc2c1,11.2
5,COC(=O)c1ccc(NC(=O)C(=O)N2CCN(C(=S)Nc3ccc(C)cc3)CC2)cc1,-6.54
6,CN=C(c1ccc([N+](=O)[O-])cc1)N1CCCCC1,12.2
7,CC(C)(C)OC(=O)N1CCN(C(=O)c2[nH]cnc2C(=O)Nc2nccs2)CC1,-9.08
8,COc1ccc(OC)c(NC(=O)Cn2c(CCC(=O)O)ccc2-c2ccccc2)c1,-5.33
9,COc1cccc(CNC(=O)C2CCN(S(=O)(=O)c3ccc4c(c3)CC(C)N4C(C)=O)CC2)c1 (stereo not shown),13.6
10,COc1ccc(S(=O)(=O)Nc2ccc(F)c(F)c2)cc1Cl,1.02
11,Cc1sc2ncnc(SCc3ccco3)c2c1C,7.4
12,C/C=C/C=N/NC(=O)CN(c1ccc(Br)cc1)S(=O)(=O)c1ccccc1,-12
13,CCn1ccnc1CN(C)Cc1nc(-c2ccccc2)no1,-6.72
14,Cc1ccc(C(=O)O[C@H](C(=O)O)[C@H](OC(=O)c2ccc(C)cc2)C(=O)O)cc1,6.07
15,COc1ccc(CC(NC(C)=O)C(=O)NC2CCN(c3c4c(nc5ncnn35)CCC4)CC2)cc1 (stereo not shown),16
16,CCOc1ccc(S(=O)(=O)NCCC(=O)N(CC)CC(=O)Nc2c(F)cccc2F)cc1,-11.6
17,COc1ccc(N/N=C(/C#N)S(=O)(=O)C(C)(C)C)cc1,13.4
18,CCOc1ccc(N2CC(C(=O)N3CCCc4ccccc43)CC2=O)cc1 (stereo not shown),-62.6
19,CC(C)CCN(C(=O)Nc1ccccc1)C(C)c1cccs1 (stereo not shown),4.83
20,Cc1c(C)c2c(OCC(=O)N[C@@H](CC(C)C)C(=O)O)cc3c(c2oc1=O)CCC(C)(C)O3,13.9
21,Cc1cccc(OCc2nc(-c3cccnc3)no2)c1,-2.27
22,O=C1CC(c2ccc(S(=O)(=O)Nc3cc(C(F)(F)F)cc(C(F)(F)F)c3)cc2)CN1 (stereo not shown),2.17
23,CCC(C)(C)NC(=O)C(c1cccn1C)N(C(=O)Cn1nnc2ccccc21)c1ccc(F)cc1 (stereo not shown),1.09
24,CCOC(=O)CSc1nnc(Cc2cc(=O)[nH]c(=O)[nH]2)n1-c1cccc(OC)c1,-7.81
25,Cc1cccc(C)c1C(=NCCN(C)C)c1ccccc1.Cl,-41.3
26,C[C@H]1C=C(C(=O)NCc2nc3ccccc3[nH]2)O[C@@H](OCCCCO)C1,4.33
27,COc1cc(C(c2sc3nc(C)nn3c2O)N2CCN(c3ccccc3)CC2)cc(OC)c1OC (stereo not shown),-2.02
